Results on three molecules are retold here after patent publication US20220380473A1, “ANTI-GAL3 ANTIBODIES AND USES THEREOF” (TrueBinding, Inc., priority 2019, published 2022).

The target in one test is Galectin-3 (Homo sapiens, UniProt P17931). The test is described as follows: SPR (BiacoreT200) binding affinity. Conditions: 25° C., read-out: hGal-3 KD. How it is done:
GAL3-binding antibodies were evaluated for their binding affinity by SPR. Kinetics experiments were performed on BiacoreT200 at 25° C. in high performance mode. Ligand proteins, purified antibodies were captured onto a CM5 chip coupled with anti-human Fc or anti-mouse Fc antibody, three antibodies at a time onto flow cell #2, 3, and 4, respectively, while flow cell #1 was used as reference. The analyte Galectin-3 in HBS-EP buffer was injected over all four flow cells at concentrations of 100, 50, 25, 12.5, 6.25, 3.125 and 0 nM at a flow rate of 30 μL/min. The complex was allowed to associate and dissociate for 240 and 300 seconds, respectively. The surfaces were regenerated with a 30 second injection of 10 mM Glycine pH 1.7 (flow rate 30 μL/min). The data were fit to a simple 1:1 interaction model using the global data analysis option available within BiacoreT200 Evaluation software V2.0. The affinity of Gal3 monoclonal antibodies was confirmed to be […] 30 nM for all antibodies studied (Table 24.1). Antibodies with affinity less than 2E-7 were selected for further characterization.
A general note: Surface plasmon resonance follows binding to a sensor surface in real time, without labels.

Test [1] concerns the target T1, association of GAL3 and TIM3 (Homo sapiens, UniProt P17931).
T1 construct: full-length human Galectin-3 protein (Acro Biosystems, GA3-H5129); linker-spaced 6-histidine tag; purchased Acro Biosystems GA3-H5129 (Gal3); TM3-H5229 (TIM-3)
The test is described as follows: GAL3-TIM3 blocking ELISA (Examples 24, 27). In kind it is binding. As to the method:
Positively scoring wells were evaluated for the ability to block association of GAL3 and TIM3. To identify GAL3-targeted antibodies with the ability to block the interaction of GAL3 and TIM3, purified GAL3 and TIM3 proteins were incubated in the presence of GAL3-immunization hybridoma supernatants described above, or without antibody, and protein interaction was evaluated by ELISA. Human Galectin-3 protein (Acro Biosystems, GA3-H5129) was diluted in PBS (Corning, 21-030-CM) to a concentration of 3 μg/ml and added to the wells of a 96-well ELISA plate (Thermo Fisher, 44-2404-21). After incubating the plate at 4° C. overnight, the plate was washed three times with PBST (PBS with 0.05% Tween 20 [VWR, 0777]). The plate was then blocked for an hour with 2% BSA (EMD Millipore, 126609) in PBST at room temperature with gentle rocking. Thereafter, the 2% BSA in PBST was discarded and antibody or inhibitor (3-fold dilutions beginning at 20 μg/ml, 60 μg/ml, or 180 μM) in 2% BSA in PBST was added to the wells. Afterwards, 2 μg/ml of human TIM3 (Aero Biosystems, TM3-H5229) in 2% BSA in PBST was added to the antibody or inhibitor in the wells in a 1:1 ratio. The plate was incubated for an hour at room temperature with gentle rocking. […] The reaction was stopped with 1M HCl (JT Baker, 5620-02) and read using a plate reader (Molecular Devices) at absorbance of 450 nm.
(In an ELISA, binding on a coated surface is turned into a signal by an enzyme label.)

The next test relates to hGal3 peptide. The test is described as follows: Gal3 peptide library ELISA (Example 25). The note with it: peptide array ELISA. In kind it is binding, human. As to the method:
To identify the epitopes to which Gal3 antibodies with and without Gal3-TIM3 blocking activity bound, a library of 20 amino acid peptides representing portions of Gal3, summarized in Table 24.1, was produced and the ability to bind Gal3 antibodies was evaluated by ELISA.
At least 2 μg/ml of hGal3 peptide in 50 μl of PBS or 0.1 μg/ml of full-length human Gal3 protein (GenScript) and human Galectin-3 protein (Acro Biosystems, GA3-H5129) were diluted in PBS (Corning, 21-030-CM) to concentrations of at least 2 μg/ml or 0.1 μg/ml, respectively, and added to the wells of a 96-well ELISA plate (Thermo Fisher, 44-2404-21). After incubating the plate at 4° C. overnight, the plate was washed three times with PBST (PBS with 0.05% Tween 20 [VWR, 0777]). The plate was then blocked for an hour with 2% BSA (EMD Millipore, 126609) in PBST at room temperature with gentle rocking. Thereafter, the 2% BSA in PBST was discarded and human Galectin-3 hybridoma supernatants or antibodies were diluted in 2% BSA in PBST to concentrations of at least 0.1 μg/ml and added to the wells. The plate was incubated for an hour at room temperature with gentle rocking and then washed three times with PBST. […] The reaction was stopped with 1M HCl (JT Baker, 5620-02) and read using a plate reader (Molecular Devices) at absorbance of 450 nm.

T1 sequence (P17931 2-250 limits assumed): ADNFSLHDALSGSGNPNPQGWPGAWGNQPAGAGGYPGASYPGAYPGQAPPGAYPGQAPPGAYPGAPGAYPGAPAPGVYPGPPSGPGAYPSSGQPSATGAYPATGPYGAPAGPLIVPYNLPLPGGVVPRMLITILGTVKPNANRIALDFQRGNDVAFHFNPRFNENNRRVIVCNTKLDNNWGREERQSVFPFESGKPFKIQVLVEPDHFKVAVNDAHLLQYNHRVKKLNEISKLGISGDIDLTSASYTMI
Chain of Galectin-3 (P17931 whole entry): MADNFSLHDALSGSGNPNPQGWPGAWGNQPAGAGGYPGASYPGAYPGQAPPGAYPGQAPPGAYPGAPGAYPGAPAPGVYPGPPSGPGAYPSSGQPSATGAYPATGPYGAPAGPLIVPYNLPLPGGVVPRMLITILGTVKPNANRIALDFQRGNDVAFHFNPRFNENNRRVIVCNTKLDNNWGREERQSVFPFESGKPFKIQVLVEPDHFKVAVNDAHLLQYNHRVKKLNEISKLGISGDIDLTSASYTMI

B1: 9H2.2H1: murine anti-Gal3 antibody (antibody)
heavy: QVQLQQPGAELVGPGSSVKLSCKASGYTFTNYWIHWVKQRPLQGLEWIGNIDPSDSETHYNQKFKDKATLTVDKSSSTAYMQLSSLTSEDSAVYYCARHGYYDYWGQGTTLTVSSASTKGPSVFPLAPCSRSTSESTAALGCLVKDYFPEPVTVSWNSGALTSGVHTFPAVLQSSGLYSLSSVVTVPSSSLGTKTYTCNVDHKPSNTKVDKRV[human IgG4 Fc with S228P (EU numbers) cut from this listing]
light: DIVMTQSHKFMSTSVGDRVSITCKASQDVSTAVAWYQQKPGQSPKLLIYWASTRHTGVPDRFTGSGSGTDYTLTISSVQAEDLALYYCQQHYTTPLTFGAGTKLELKRTVAAPSVFIFPPSDEQLKSGTASVVCLLNNFYPREAKVQWKVDNALQSGNSQESVTEQDSKDSTYSLSSTLTLSKADYEKHKVYACEVTHQGLSSPVTKSFNRGEC
With B1, the Kd – broadly, the free concentration of one partner at which half of the binding sites on the other are occupied at equilibrium, for simple one-to-one binding – with Galectin-3 is 18.4 nM. Moreover, in test [1] (3 ug/mL antibody), the “GAL3-TIM3 Blocking @ 3 ug/mL” value is 6%.

B2: IMT006-8: humanized anti-Gal3 antibody (antibody)
heavy: QVQLVQSGAEVKKPGASVKVSCKASGYSFTNYYIHWVRQAPGQRLEWMGWIYPGSGNTNYNEKFQGRVTLTADTSASTTYMELSSLRSEDTAVYYCSTAPGGFDVWGQGTTVTVSSASTKGPSVFPLAPCSRSTSESTAALGCLVKDYFPEPVTVSWNSGALTSGVHTFPAVLQSSGLYSLSSVVTVPSSSLGTKTYTCNVDHKPSNTKVDKRV[human IgG4 Fc with S228P (EU numbers) cut from this listing]
light: DIVMTQSPLSLPVTPGEPASISCRSSKSLLHSDGITYLYWYLQKPGQSPQLLIYRMSNLASGVPDRFSGSGSGTDFTLKISRVEAEDVGVYYCAQMLEFPLTFGQGTKLEIKRTVAAPSVFIFPPSDEQLKSGTASVVCLLNNFYPREAKVQWKVDNALQSGNSQESVTEQDSKDSTYSLSSTLTLSKADYEKHKVYACEVTHQGLSSPVTKSFNRGEC
Take B2: inhibition in test [1] (titration series, purified GAL3 and TIM3) was half-maximal at 2.8 nM (IC50).

B3: 846.14A2: Gal3-binding antibody named only in the peptide 7 list (antibody)
heavy: QIQLVQSGPELKKPGETVKISCKASGYTFTNYGMNWVKQAPGKGLKWMGWINTYTGEPTYAGDLKGRFAFSLETSASTAYLQINNLKNEDTATYFCVRYTMDYWGQGTSVTVSSASTKGPSVFPLAPCSRSTSESTAALGCLVKDYFPEPVTVSWNSGALTSGVHTFPAVLQSSGLYSLSSVVTVPSSSLGTKTYTCNVDHKPSNTKVDKRV[human IgG4 Fc with S228P (EU numbers) cut from this listing]
light: QAVVTQESALTTSPGETVTLTCRSSTGAVTTSNYANWVQEKPDHLFTGLIGGINNRVPGVPARFSGSLIGDKAALTITGAQTEDEAIYFCALWYSNHWVFGGGTKLTVLRTVAAPSVFIFPPSDEQLKSGTASVVCLLNNFYPREAKVQWKVDNALQSGNSQESVTEQDSKDSTYSLSSTLTLSKADYEKHKVYACEVTHQGLSSPVTKSFNRGEC
Take B3: in the test on hGal3 peptide, the Gal3 peptide bound result is listed as “peptide 7”.
